The least precise scores are not listed. Not listed are two conditions whose scores span a narrow range. In variant names, del marks residues removed and ins residues inserted between the two positions. For some of these results: How much ogerin was present is not stated here.

This is an account of results in the GPR68 mutational scans of Howard et al. (2025).

The labels stand for the following.
B1: GPR68, Q15743 (parent)
chain: MGNITADNSSMSCTIDHTIHQTLAPVVYVTVLVVGFPANCLSLYFGYLQIKARNELGVYLCNLTVADLFYICSLPFWLQYVLQHDNWSHGDLSCQVCGILLYENIYISVGFLCCISVDRYLAVAHPFRFHQFRTLKAAVGVSVVIWAKELLTSIYFLMHEEVIEDENQHRVCFEHYPIQAWQRAINYYRFLVGFLFPICLLLASYQGILRAVRRSHGTQKSRKDQIQRLVLSTVVIFLACFLPYHVLLLVRSVWEASCDFAKGVFNAYHFSLLLTSFNCVADPVLYCFVSETTHRDLARLRGACLAFLTCSRTGRAREAYPLGAPEASGKSGAQGEEPELLTKLHPAFQTPNSPGSGGFPTGRLA

Series [1] covers variants of B1. As to the kind of experiment: cAMP reporter score (Enrich2 score, wild type = 0); higher = more signal; HEK293T, FACS bins.
In series [2] the parent is B1. The series is described as follows: surface expression score (Enrich2 score, wild type = 0); higher = more signal; HEK293T, FACS bins.

As to V250R, the cAMP reporter score is -2.04 in series [1] (pH 5.5); -1.68 in series [1] (pH 6); -2.06 in series [1] (pH 6, modulator: ogerin); -0.386 in series [1] (pH 6.5, modulator: ogerin). Besides, the surface expression score in series [2] was -3.35.

For V250S, the cAMP reporter score in series [1] (pH 5.5) is -0.656; in series [1] (pH 6, modulator: ogerin), 0.219; in series [1] (pH 6.5, modulator: ogerin), -1.64. Further, in series [2], the surface expression score was -0.595.

In the case of V250Y, the cAMP reporter score in series [1] (pH 5.5) is 0.412; in series [1] (pH 6, modulator: ogerin), -0.003; in series [1] (pH 6.5, modulator: ogerin) it was -0.928. Also, in series [2], the surface expression score was -0.079.

For the variant V250W, the cAMP reporter score in series [1] (pH 5.5) is 0.812; in series [1] (pH 6), -0.444; in series [1] (pH 6, modulator: ogerin), -1.02; in series [1] (pH 6.5, modulator: ogerin) it was 0.021. The surface expression score in series [2] stood at 0.95.

As for V250P, the cAMP reporter score is -1.71 in series [1] (pH 5.5); -1.22 in series [1] (pH 6); -1.01 in series [1] (pH 6, modulator: ogerin); -0.096 in series [1] (pH 6.5, modulator: ogerin). Moreover, in series [2], the surface expression score was -2.85.

For V250T, the cAMP reporter score came to 1.45 in series [1] (pH 5.5); 0.095 in series [1] (pH 6); 1.49 in series [1] (pH 6, modulator: ogerin); 1.07 in series [1] (pH 6.5, modulator: ogerin). In addition, the surface expression score in series [2] came out at 0.443.

Consider V250N, for which the cAMP reporter score in series [1] (pH 5.5) is -0.394; in series [1] (pH 6, modulator: ogerin), -2.13; in series [1] (pH 6.5, modulator: ogerin) it was -3.82. In addition, the surface expression score in series [2] is -2.71.

Take V250del: the cAMP reporter score was -0.313 in series [1] (pH 5.5); 0.623 in series [1] (pH 6); -0.741 in series [1] (pH 6.5, modulator: ogerin). For the same variant, in series [2], the surface expression score was -2.43.

Take R251_V253del: the cAMP reporter score in series [1] (pH 5.5) was -1.65; in series [1] (pH 6, modulator: ogerin) it was -1.53; in series [1] (pH 6.5, modulator: ogerin) it was -0.761. Also, the surface expression score in series [2] was -3.02.

For D259_F260del, the cAMP reporter score in series [1] (pH 5.5) is -1.12; in series [1] (pH 6) it was -0.751; in series [1] (pH 6, modulator: ogerin), -1.29; in series [1] (pH 6.5, modulator: ogerin) it was -0.458. The surface expression score in series [2] was 1.4.

In the case of V253_E255del, the cAMP reporter score in series [1] (pH 5.5) is -1.11; in series [1] (pH 6), -1.73; in series [1] (pH 6, modulator: ogerin) it was -1.61; in series [1] (pH 6.5, modulator: ogerin) it was -0.906. Moreover, the surface expression score in series [2] is -2.07.

Regarding C258_D259insG, the cAMP reporter score in series [1] (pH 5.5) was -0.946; in series [1] (pH 6), -0.921; in series [1] (pH 6, modulator: ogerin) it was -1.08; in series [1] (pH 6.5, modulator: ogerin), -0.679. In series [2], the surface expression score amounted to 1.49.

As to A256_C258del, the cAMP reporter score is -1.01 in series [1] (pH 5.5); -1.08 in series [1] (pH 6); -0.71 in series [1] (pH 6, modulator: ogerin); 0.067 in series [1] (pH 6.5, modulator: ogerin). The surface expression score in series [2] is -1.86.

As to D259_F260insG, the cAMP reporter score in series [1] (pH 5.5) is -1.17; in series [1] (pH 6), -1.28; in series [1] (pH 6, modulator: ogerin), -1.25; in series [1] (pH 6.5, modulator: ogerin), -1.51. In series [2], the surface expression score worked out at 0.665.

For the variant E255_A256del, the cAMP reporter score is -1.32 in series [1] (pH 5.5); -1.27 in series [1] (pH 6); -1.34 in series [1] (pH 6, modulator: ogerin); -1.37 in series [1] (pH 6.5, modulator: ogerin). Further, the surface expression score in series [2] is -1.91.

Take R251_S252insG: the cAMP reporter score in series [1] (pH 5.5) was -0.418; in series [1] (pH 6, modulator: ogerin), -0.678.

For the variant W254_E255del, the cAMP reporter score in series [1] (pH 5.5) was -1.62; in series [1] (pH 6), -1.32; in series [1] (pH 6, modulator: ogerin) it was -1.28; in series [1] (pH 6.5, modulator: ogerin) it was -1.12. Further, the surface expression score in series [2] was -1.31.

As to F260G, the cAMP reporter score in series [1] (pH 5.5) was 0.141; in series [1] (pH 6), -0.259; in series [1] (pH 6, modulator: ogerin), 0.255; in series [1] (pH 6.5, modulator: ogerin), -0.501. The surface expression score in series [2] is -0.01.

As to F260K, the cAMP reporter score in series [1] (pH 5.5) is 0.267; in series [1] (pH 6), -0.799; in series [1] (pH 6, modulator: ogerin) it was -0.826; in series [1] (pH 6.5, modulator: ogerin), -0.73. Besides, the surface expression score in series [2] was -0.611.

As for F260P, the cAMP reporter score in series [1] (pH 5.5) was -1; in series [1] (pH 6), -1.03; in series [1] (pH 6, modulator: ogerin), -1.53; in series [1] (pH 6.5, modulator: ogerin), -0.791. The surface expression score in series [2] was 0.026.

F260M: the cAMP reporter score was 0.798 in series [1] (pH 5.5); -0.599 in series [1] (pH 6); -0.232 in series [1] (pH 6, modulator: ogerin); -0.512 in series [1] (pH 6.5, modulator: ogerin). Besides, in series [2], the surface expression score was -0.371.

Take F260E: the cAMP reporter score in series [1] (pH 5.5) is -0.01; in series [1] (pH 6), -0.18; in series [1] (pH 6, modulator: ogerin) it was 0.117; in series [1] (pH 6.5, modulator: ogerin) it was -0.193. Further, the surface expression score in series [2] was 0.417.

Regarding F260I, the cAMP reporter score is -0.736 in series [1] (pH 5.5); -0.571 in series [1] (pH 6); -0.849 in series [1] (pH 6, modulator: ogerin); -0.788 in series [1] (pH 6.5, modulator: ogerin). For the same variant, the surface expression score in series [2] is 0.2.

On to F260H, for which the cAMP reporter score in series [1] (pH 5.5) was -0.344; in series [1] (pH 6), 0.195; in series [1] (pH 6, modulator: ogerin), -0.179; in series [1] (pH 6.5, modulator: ogerin), 0.32. Further, the surface expression score in series [2] stood at 0.324.

For the variant F260L, the cAMP reporter score in series [1] (pH 5.5) is 0.018; in series [1] (pH 6), -0.517; in series [1] (pH 6, modulator: ogerin), -0.422; in series [1] (pH 6.5, modulator: ogerin), -0.723. Besides, the surface expression score in series [2] turned out to be 0.265.

In the case of F260N, the cAMP reporter score stood at 0.319 in series [1] (pH 5.5); 1.08 in series [1] (pH 6, modulator: ogerin); 2.33 in series [1] (pH 6.5, modulator: ogerin). In series [2], the surface expression score was found to be 1.07.

With R251_S252insGS, the cAMP reporter score in series [1] (pH 5.5) is -1.36; in series [1] (pH 6), -0.979; in series [1] (pH 6, modulator: ogerin) it was -1.07; in series [1] (pH 6.5, modulator: ogerin) it was -1.45. Also, in series [2], the surface expression score was -1.62.

For the variant C258_D259insGS, the cAMP reporter score in series [1] (pH 5.5) is -2.16; in series [1] (pH 6), -1.4; in series [1] (pH 6, modulator: ogerin) it was -1.72; in series [1] (pH 6.5, modulator: ogerin), -0.714. In series [2], the surface expression score is 0.251.

For V250_R251del, the cAMP reporter score in series [1] (pH 5.5) was -1.35; in series [1] (pH 6), -1.36; in series [1] (pH 6, modulator: ogerin) it was -1.32; in series [1] (pH 6.5, modulator: ogerin), -1.53. In addition, the surface expression score in series [2] is -2.67.

E255_S257del: the cAMP reporter score in series [1] (pH 5.5) was -1.61; in series [1] (pH 6), -0.651; in series [1] (pH 6, modulator: ogerin) it was -2.04; in series [1] (pH 6.5, modulator: ogerin) it was -0.785. For the same variant, the surface expression score in series [2] was -1.72.

Consider S252_V253insG, for which the cAMP reporter score in series [1] (pH 5.5) is -0.75; in series [1] (pH 6) it was -1.42; in series [1] (pH 6, modulator: ogerin), -0.554; in series [1] (pH 6.5, modulator: ogerin), -0.819. Further, in series [2], the surface expression score is -0.426.

In the case of V253del, the cAMP reporter score in series [1] (pH 5.5) was 0.753; in series [1] (pH 6) it was -0.578; in series [1] (pH 6, modulator: ogerin) it was -0.118; in series [1] (pH 6.5, modulator: ogerin) it was -0.127. Moreover, the surface expression score in series [2] was -0.341.
